Laboratory results published in PubChem BioAssay AID492949 (National Center for Advancing Translational Sciences (NCATS), 2010).
Inconclusive means that the source gave no clear call. Such entries were picked first, then a sample of the others. A potency beside an inconclusive call is a rough fit, not a confirmed value. Activity calls are given as the source filed them. The call rests on the fitted dose curve; in most records, active means well fitted activation curve with a large enough effect; inconclusive means small, poorly fitted or top-dose-only effect; inactive means no such curve, though single readings can be large or run the other way.

Target: Relaxin receptor 1 (Homo sapiens) (UniProt Q9HBX9)
Chain of UniProt Q9HBX9 (Q9HBX9 whole entry, looked up): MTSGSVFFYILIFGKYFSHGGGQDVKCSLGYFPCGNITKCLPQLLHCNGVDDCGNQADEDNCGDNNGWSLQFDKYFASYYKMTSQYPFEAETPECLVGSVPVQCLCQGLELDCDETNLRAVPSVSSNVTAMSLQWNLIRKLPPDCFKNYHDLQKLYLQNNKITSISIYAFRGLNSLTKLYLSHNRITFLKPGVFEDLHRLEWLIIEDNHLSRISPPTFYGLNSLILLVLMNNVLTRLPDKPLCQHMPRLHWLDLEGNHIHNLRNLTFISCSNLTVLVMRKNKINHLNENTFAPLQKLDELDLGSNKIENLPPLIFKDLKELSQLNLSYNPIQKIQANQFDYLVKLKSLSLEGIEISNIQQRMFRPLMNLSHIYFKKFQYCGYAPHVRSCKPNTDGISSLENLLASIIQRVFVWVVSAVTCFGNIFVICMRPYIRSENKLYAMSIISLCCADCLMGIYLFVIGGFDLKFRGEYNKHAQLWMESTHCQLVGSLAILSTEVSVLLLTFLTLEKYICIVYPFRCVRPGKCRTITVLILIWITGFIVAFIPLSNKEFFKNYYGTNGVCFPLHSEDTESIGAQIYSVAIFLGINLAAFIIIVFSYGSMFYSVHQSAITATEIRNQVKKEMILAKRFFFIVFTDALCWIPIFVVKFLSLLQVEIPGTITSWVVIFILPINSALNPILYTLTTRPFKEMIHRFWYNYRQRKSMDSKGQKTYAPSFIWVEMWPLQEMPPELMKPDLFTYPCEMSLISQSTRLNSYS
Assay: qHTS Assay for Agonists of the Relaxin Receptor RXFP1: THP1 Hit Validation; further: nearly all actives have a fitted effect of over 60% in size;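 on activation: 0% = buffer alone basal and 100% = 29 nM porcine relaxin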
Settings: THP1-RXFP1 cells, cAMP TR-FRET, 30 min; series mostly up to 115 µM; activation: at the top concentration
Summary of the method: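 THP1 cells stably expressing RXFP1, treated 30 min at 37 C with compounds alongside PDE4 inhibitor Ro 20174. cAMP read by HTRF TR-FRET after lysis; normalized to buffer and 29 nM porcine relaxin; EC50 from Hill fits.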
Potency means the concentration at half of the fitted maximal effect; tags describe the fitted curve by direction and shape.

SMILES	activation	Potency
CC[n+]1ccc(/C=C/c2ccc(N(C)C)cc2)c2ccccc21	inactive: -48.4%	–
O=[N+]([O-])c1cc2c(c(CSc3ncccn3)c1)OCOC2	–	inconclusive: 1.95 µM [activator, full curve]
O=C(Nc1ncccn1)c1ccc([N+](=O)[O-])o1	–	inconclusive: 34.6 µM [activator, partial curve]
COc1ccc(S(=O)(=O)N2CCOCC2)cc1NC(=O)CSc1cccc[n+]1[O-]	–	inconclusive: 38.9 µM [activator, partial curve]
Cc1cc(C)n2nc(C(=O)Nc3ccc4c(c3)OCCO4)nc2n1	–	active: 8.68 µM
CCC1(C)Cc2c(sc3c2c2ncnn2c2nnc(SCC(=O)NCc4ccco4)n32)CO1 (stereo not given)	–	active: 11 µM
COc1cccc(C(=O)CSc2nnc(-c3cc(OC)cc(OC)c3)o2)c1	–	active: 12.3 µM
Cn1c(=O)c2c(nc(SCC(=O)N3CCOCC3)n2C)n(C)c1=O	–	inconclusive: 30.9 µM [activator, partial curve, poor fit]
CC1(C(=O)Nc2nc3ccccc3s2)CC1(Br)Br (stereo not given)	inactive: 4.93%	–
O=C(Nc1ccccc1)c1ccccc1NC(=O)C1CCCCC1	inactive: -4.77% [at 125 µM]	–
c1ccc(-c2nnc(-c3ccccn3)c(-c3ccccn3)n2)nc1	inactive: -1.89%	–
Cn1c([N+](=O)[O-])cnc1N1CCN(c2nncs2)C1=O	–	inconclusive: 30.9 µM [activator, partial curve]
COc1cc(/C=N/NC(=O)Cn2cnc3c2c(=O)n(C)c(=O)n3C)ccc1O	–	inconclusive: 27.5 µM [activator, partial curve, poor fit]
O=C(Cn1nc(-c2cccc([N+](=O)[O-])c2)c2ccccc2c1=O)NCC1CCCO1 (stereo not given)	–	inconclusive: 30.9 µM [activator, partial curve]
CCS(=O)(=O)c1nc(S(=O)(=O)c2ccc(C)cc2)c(N2CC(C)OC(C)C2)s1 (stereo not given)	–	inconclusive: 13.8 µM [activator, partial curve]
CC1(C)CC(=O)C2=C(C1)NC1=C(C(=O)c3ccccc31)C2c1cc([N+](=O)[O-])ccc1O (stereo not given)	–	inconclusive: 4.89 µM [activator, full curve]
COc1ccc(CN2C(=O)c3cccnc3C2=O)cc1S(=O)(=O)NCc1ccc(C)o1	–	inconclusive: 27.5 µM [activator, partial curve]
CNC(=O)c1ccccc1NC(=O)c1ccco1	–	inconclusive: 46.6 µM [activator, partial curve]
CC1CCCCN1CCNC(=O)CCc1nnc2n(Cc3ccccc3)c(=O)c3ccccc3n12 (stereo not given)	–	inconclusive: 69.1 µM [activator, partial curve, poor fit]
CCc1ccc(-c2nc3ccc(Br)cc3c(C(=O)O)c2C)s1	–	active: 6.15 µM
Cc1ccc(CNC(=O)CCCn2nc(C)n3ccnc3c2=O)cc1	–	inconclusive: 30.9 µM [activator, partial curve]
Cc1nn(CCc2nn[nH]n2)c2nc(-c3ccc(Br)cc3)cc(C(F)(F)F)c12	–	inconclusive: 17.3 µM [activator, partial curve]
COc1ccc(/C=N/NC(=O)Cn2cnc3c2c(=O)n(C)c(=O)n3C)cc1	–	inconclusive: 30.9 µM [activator, partial curve]
CCn1c(SCC(=O)Nc2ccc(NC(C)=O)cc2)nc2c1c(=O)n(C)c(=O)n2C	–	inconclusive: 17.4 µM [activator, partial curve]
COCCNC(=O)C(OC(=O)c1nsc(Cl)c1Cl)C(C)C (stereo not given)	–	inconclusive: 48.9 µM [activator, partial curve, poor fit]
